# Data taken from the supplement of paper PMC3334620.
# In all, about 33,000 sequences were measured (“E-score (-0.5 to 0.5)”: median about -0.041, highest 2% from about 0.37 on). This is one part of the list.
# Target: T1, Ecm22 (UniProt Q05958)
# T1 sequence: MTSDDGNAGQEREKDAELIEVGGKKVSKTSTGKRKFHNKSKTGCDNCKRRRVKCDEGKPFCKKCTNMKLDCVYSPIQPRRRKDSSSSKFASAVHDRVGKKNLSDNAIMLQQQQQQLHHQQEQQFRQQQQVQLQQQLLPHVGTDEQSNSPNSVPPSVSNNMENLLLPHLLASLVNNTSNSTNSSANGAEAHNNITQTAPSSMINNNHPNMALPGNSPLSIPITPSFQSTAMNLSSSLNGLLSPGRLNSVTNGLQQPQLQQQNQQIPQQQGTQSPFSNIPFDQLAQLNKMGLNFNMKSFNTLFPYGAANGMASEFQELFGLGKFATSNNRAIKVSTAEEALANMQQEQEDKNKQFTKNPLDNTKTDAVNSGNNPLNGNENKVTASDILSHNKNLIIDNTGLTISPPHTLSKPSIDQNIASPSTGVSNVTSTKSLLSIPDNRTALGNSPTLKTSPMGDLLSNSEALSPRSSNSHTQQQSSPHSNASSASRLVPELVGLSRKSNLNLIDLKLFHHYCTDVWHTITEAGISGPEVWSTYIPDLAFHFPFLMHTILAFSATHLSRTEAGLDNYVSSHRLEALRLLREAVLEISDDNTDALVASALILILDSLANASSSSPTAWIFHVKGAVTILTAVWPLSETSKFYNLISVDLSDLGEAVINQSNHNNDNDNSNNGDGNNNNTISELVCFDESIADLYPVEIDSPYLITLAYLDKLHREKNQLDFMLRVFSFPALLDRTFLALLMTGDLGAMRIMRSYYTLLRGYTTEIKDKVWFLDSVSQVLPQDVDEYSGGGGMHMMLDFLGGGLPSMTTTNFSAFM
# Test: PBM E-score (8-mer binding enrichment) (E-score (-0.5 to 0.5)); higher = stronger / more preferred TF binding; most listed sequences are background and not binding sites
# Details: protein concentration: 200 nM; construct: GST-full length
# Procedure, shortened: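 Masliner-normalised scans of fluorescent anti-GST signal were the basis for scoring. That signal came from GST-tagged yeast transcription factors applied at about 100-200 nM to double-stranded universal all-10-mer Agilent arrays on fresh or once-stripped slides. Each ungapped eight-base word, pooled with its reverse complement, received an E-score from the Universal PBM Analysis Suite.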
row,Sequence,PBM E-score
1,CAAGCCAA,0.103
2,GAGTAGCA,-0.155
3,ATGTTTGC,-0.171
4,TCGTTCCA,0.475
5,ATTAAAGA,-0.0129
6,ACATCGTA,0.423
7,AGTACTGG,-0.0671
8,ACATACGA,0.466
9,TCCGTGCA,-0.0975
10,GTGATGGA,-0.166
11,TAGTCCAA,-0.157
12,AGGCCTGG,-0.197
13,ACACAGCG,0.159
14,CGTTCCAC,0.405
15,CGCGTCGA,0.06
16,ACAGCACG,0.14
17,AAAGGCAC,-0.164
18,CGGCCTAG,-0.225
19,CTAAAACC,-0.234
20,ACTACTCA,-0.15
21,ACGTACGT,0.245
22,ACCGAGCG,0.292
23,ATCATTTC,-0.00419
24,ATACAACG,0.118
25,AGTACAAG,0.0646

row,Sequence,PBM E-score
1,AACACCAA,-0.0923
2,ACCTTCCG,0.0688
3,AAATGCCC,-0.254
4,ACGATTTG,0.287
5,CTATTAGC,0.0694
6,AACTGGGT,-0.203
7,AATTTTAA,0.0521
8,CTGGCTTA,-0.148
9,GGTTCGCA,0.198
10,GGTAAAGA,-0.00696
11,CTGTACCC,-0.187
12,ATTAAATG,-0.142
13,GCGGTGCA,-0.0592
14,ATAGCCAA,0.106
15,AATGAGTA,0.0998
16,CGTCTGAA,-0.102
17,AATGGCCT,-0.13
18,GGATGGAA,0.0542
19,CACTGGAG,-0.259
20,AGGAGCCT,-0.308
21,ACAGCGTC,-0.0393
22,ATCAGCAG,-0.0742
23,CGGACGCC,-0.0374
24,GCTTGGGA,-0.209
25,ACATCCGG,0.0185

row,Sequence,PBM E-score
1,ACACTCCC,-0.135
2,CATTTTCA,-0.131
3,GGTCCGTA,0.331
4,CAGGAATA,-0.182
5,ATTTAATC,-0.0655
6,TTCCGAAA,0.0364
7,CCAAGTTA,-0.292
8,ATCATAAA,-0.14
9,GGGTCCAA,0.0472
10,GGAATAAA,-0.103
11,CGGACCTA,0.0489
12,TAAGTACA,0.0495
13,ATGTGGGC,-0.206
14,CATTACGC,-0.0121
15,CACAGCTA,-0.046
16,CGATAGGA,0.1
17,ACGGACGG,0.134
18,AATCCCAC,-0.18
19,GCTCCAGA,-0.117
20,CCCCAGCC,-0.0203
21,CGTCGCCC,-0.122
22,CAAGATAC,0.0457
23,CAGGTGGG,-0.161
24,ATAAGCAT,0.0258
25,ATGTATAA,0.0604

row,Sequence,PBM E-score
1,ATGGAAGA,-0.155
2,AAGCGATG,0.205
3,TGGGCCAA,-0.138
4,GAAAACAA,-0.0401
5,GGAGATTA,-0.152
6,CTATCTCC,-0.209
7,AGCCGACA,-0.0971
8,TGAACGCA,0.0733
9,CGGTGATC,-0.0864
10,AATCTTCG,0.197
11,ACGGCTGA,0.00758
12,AATCCTCC,-0.0866
13,CCTTCTTC,-0.107
14,AGCGACAC,0.229
15,AACTGTCG,0.154
16,AAGCGCCG,-0.0555
17,CCAACAAC,0.0154
18,GATCTTGA,-0.0293
19,GGACGAAA,0.108
20,AAAGTTGA,-0.0947
21,CCTCTACA,-0.158
22,ATGTTTGG,0.00241
23,AGGCTCAC,-0.191
24,GACCCCCC,-0.167
25,ATACTTCG,0.18

row,Sequence,PBM E-score
1,CTTCGGAA,0.163
2,CACTTAAA,-0.129
3,AGCATTTC,-0.125
4,TAAAAGCA,0.0355
5,AGAATAAT,-0.0371
6,AGGCCACC,-0.0477
7,TCTTGGAA,-0.0708
8,CATAATAC,0.161
9,TCAAAGAA,-0.0967
10,ATTCTAGC,-0.164
11,CAGATATG,0.0146
12,GTGGGTTA,-0.0771
13,GAAGGGTA,0.0433
14,GCATTGGA,-0.163
15,GCCATGCC,-0.105
16,ATACTAAT,0.065
17,CGGTTGCC,0.0445
18,TATCTTCA,0.116
19,CGGAATAG,-0.0923
20,AATGTTAG,0.0051
21,GCTCCTGA,-0.174
22,CACAAGCG,0.028
23,GAGAGAAC,-0.0496
24,CGCAGGGC,0.0788
25,ACTGGAAT,-0.232

row,Sequence,PBM E-score
1,CACAACTA,0.105
2,ACGGCCAC,-0.0659
3,ATGGTTGA,-0.269
4,AATTCAGG,0.00191
5,CGCGTGGC,-0.0813
6,CTCACAAA,-0.116
7,GGTGCTAA,0.0163
8,AATCAATG,0.0975
9,GTGTGAGA,-0.128
10,AATCTACG,0.143
11,CAGTGTAC,0.155
12,TAACAATA,0.0544
13,CATTTTGA,-0.0977
14,CGACCCCG,-0.0356
15,CGCTTAAA,0.278
16,AGACTACG,-0.0604
17,GAGGCTCA,-0.237
18,AAATATAG,-0.00859
19,GCATACAC,0.0458
20,CTCCCAGC,-0.0732
21,CCTTTATC,-0.0497
22,TAAGGATA,0.00857
23,ATTATTCA,-0.151
24,GCTGGGAA,0.0268
25,ATCTCTCA,-0.186

row,Sequence,PBM E-score
1,TAAGTGTA,0.103
2,TTAGCCAA,-0.044
3,TAACAGAA,-0.0719
4,CGCACCCC,-0.0698
5,CGTAACGA,0.338
6,CGTTCGCA,0.268
7,CCGGGTAG,-0.0969
8,ACTGCGGC,0.0118
9,CCCATACA,-0.32
10,ACCTAAAC,0.222
11,ATGCCTGG,-0.215
12,GCTACGTA,0.265
13,ACTTGCAT,0.037
14,ACAGCGGG,-0.0562
15,ATTGCAGC,-0.0429
16,CATAGGAC,-0.091
17,CAGAACGA,0.379
18,AGATCGCC,0.141
19,ATCCTAGC,-0.123
20,AGAAACCA,-0.0581
21,GGGGAAAA,-0.0524
22,GTTCTACA,0.0069
